Assay results reported in the supplement of paper PMC10126150.
Sequences with one replicate were seen in a single cluster, so their values are uncertain.

tested on: ATP; test: switch fluorescence ratio, 500 uM ATP over buffer (Cy3 cluster intensity, sum of 5 cycles each) (fold (ratio)); higher = stronger signal-on switching upon ATP binding; sequences stand for … in TCGTCGGCAGCGTCAGATGTGTATAAGAGACAGTTTTTTTTTTTTTTTTTTTTTTTTT…TC; settings: aptamer strand: ATP DNA aptamer (quencher-CACCTGGGGGAGTATTGCGGAGGAAGG + anchor), 100 nM annealed; ATP concentration: 500 uM; one replicate
Procedure, shortened: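 Five buffer/ATP imaging cycles were run on Cy3-labelled switching-strand clusters on a modified Illumina MiSeq flow-cell, with NaOH stripping and re-annealing between cycles. In each cycle, clusters annealed to 100 nM quencher-labelled ATP aptamer were imaged in selection buffer, then after 15 min with 500 uM ATP at 22 °C. Per cluster, the fluorescence ratio is summed target-cycle over summed buffer-cycle Cy3 intensity, averaged per switch-domain sequence. Only clusters within 100-1000 RFU were kept.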
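Further: ATP exposure 15 min at 22 °C before imaging.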

Sequence | switch fluorescence ratio
ACGGGATATG | 1.09
ACGGGCGCTT | 1.02
ACGGGCGGGA | 1.11
ACGGGCGTCG | 1.03
ACGGGGACGC | 0.959
ACGGGGCACC | 0.983
ACGGGGGTAC | 1.03
ACGGGTCTGA | 1.04
ACGGGTGTTG | 1.06
ACGGGTTAGT | 1.03
ACGGTAATGG | 1.11
ACGGTACAGT | 1.33
ACGGTATACT | 1.37
ACGGTCAAAA | 0.987
ACGGTCGGGA | 0.994
ACGGTGCGTC | 1.01
ACGGTGTAAA | 0.987
ACGGTGTATC | 1.04
ACGGTTAGGT | 0.996
ACGGTTCGGT | 0.999
ACGGTTGCCT | 0.992
ACGTAATCCG | 1.03

Sequence | switch fluorescence ratio
ACGTAATCGA | 1.27
ACGTACCTTT | 1.34
ACGTACTTCT | 1.51
ACGTAGACTA | 1.12
ACGTAGATGG | 1.05
ACGTAGGGCA | 1.04
ACGTATACGA | 1.1
ACGTATAGGG | 1.13
ACGTCATATT | 1.18
ACGTCATGC | 1.4
ACGTCGTACC | 1.09
ACGTCGTGTT | 1.02
ACGTCTACGT | 1.05
ACGTCTGAGT | 0.993
ACGTCTGTCT | 0.987
ACGTGACGCG | 0.989
ACGTGATTGT | 1.03
ACGTGGATTC | 1.1
ACGTGTAATG | 1.03
ACGTTAAATA | 1.14
ACGTTAAGG | 1.11
ACGTTACGGA | 1.31

Sequence | switch fluorescence ratio
ACGTTACGTT | 1.4
ACGTTCCATG | 1.02
ACGTTGAGGT | 1.03
ACGTTTTTGG | 0.977
ACTAAACACA | 1.1
ACTAAATGG | 1.03
ACTAAGCGAA | 1.14
ACTAAGTTTC | 0.993
ACTAATATTA | 1.01
ACTACATTTA | 1.06
ACTACGCCAC | 3.19
ACTACGCCAG | 1.29
ACTACTAGAC | 1.17
ACTACTTATT | 1.01
ACTAGAACAA | 1.02
ACTAGAAGCC | 1.03
ACTAGACCTA | 1.09
ACTAGAGTTT | 1.04
ACTAGATACA | 1
ACTAGATTA | 1.01
ACTAGCAA | 3.58
ACTAGCTGG | 1.03

Sequence | switch fluorescence ratio
ACTAGCTGGG | 1.01
ACTAGCTTCC | 3.35
ACTAGGGAAA | 0.961
ACTAGTATG | 1
ACTATACACG | 1.29
ACTATCATAA | 1.06
ACTATGCTCA | 1.04
ACTATGGCT | 0.984
ACTATGTAGT | 0.959
ACTATTACGT | 1.13
ACTATTATGT | 1.04
ACTATTTTGA | 1.04
ACTCAACCTG | 1.45
ACTCAACGTG | 1.18
ACTCAATTGT | 0.981
ACTCAATTTG | 1.02
ACTCAGAAAG | 1.1
ACTCAGCGTG | 1.06
ACTCAGGGTT | 1.01
